Reference: US6403626B1, “Benzimidazole derivatives” (Synaptic Pharmaceutical Corporation, priority 1994, dated 2002)

Assays:
[1] = molecular target: T1, α2A Human Adrenergic Receptor (Homo sapiens, UniProt P08913); test: cell-based
T1 sequence (P08913 1-465): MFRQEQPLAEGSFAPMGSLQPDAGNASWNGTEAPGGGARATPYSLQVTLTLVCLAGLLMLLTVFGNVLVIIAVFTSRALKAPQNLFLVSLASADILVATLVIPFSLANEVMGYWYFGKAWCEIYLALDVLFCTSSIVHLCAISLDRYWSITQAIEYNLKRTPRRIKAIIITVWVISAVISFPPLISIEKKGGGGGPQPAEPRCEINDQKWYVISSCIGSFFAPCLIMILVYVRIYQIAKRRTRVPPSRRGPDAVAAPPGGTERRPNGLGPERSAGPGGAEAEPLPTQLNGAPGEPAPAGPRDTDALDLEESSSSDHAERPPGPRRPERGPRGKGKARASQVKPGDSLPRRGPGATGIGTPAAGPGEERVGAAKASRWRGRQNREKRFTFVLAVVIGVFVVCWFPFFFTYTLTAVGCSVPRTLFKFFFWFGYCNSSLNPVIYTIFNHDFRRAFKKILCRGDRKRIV

[2] = molecular target: T1, α2A Human Adrenergic Receptor; details: functional cAMP assay
[3] = molecular target: T1, α2A Human Adrenergic Receptor; test: Equilibrium competition binding, [3H] rauwolscine, membranes of transfected LM(tk-) cells

Structure (SMILES)	EC50 [1] [µM]	I.A Alpha-2 A [2]	Ki [3] [µM]
c1nc2ccc(NC3=NCCN3)cc2[nH]1 [Example 1, 5-(2-Imidazolin-2-ylamino)Benzimidazole]	0.0575	1.00	0.0182
Clc1c(NC2=NCCN2)ccc2nc[nH]c12 [Example 3, 4-Chloro-5-(2-imidazolin-2-ylamino)Benzimidazole]	0.000661	1.00	0.759
CCc1c(NC2=NCCN2)ccc2nc[nH]c12 [Example 6, 4-Ethyl-5-(2-imidazolin-2-ylamino)Benzimidazole]	0.00676	1.00	0.00468
CCCc1c(NC2=NCCN2)ccc2nc[nH]c12 [Example 7, 4-n-Propyl-5-(2-imidazolin-2-ylamino)Benzimidazole]	0.00724	1.00	
CCCCc1c(NC2=NCCN2)ccc2nc[nH]c12 [Example 8, 4-n-Butyl-5-(2-imidazolin-2-ylamino)Benzimidazole]	0.135	0.90	
Cn1cnc2cc(NC3=NCCN3)ccc21 [Example 9, 1-Methyl-5-(2-imidazolin-2-ylamino)Benzimidazole]	0.224	1.00	0.0182
Cn1cnc2c(Br)c(NC3=NCCN3)ccc21 [Example 10, 1-Methyl-4-bromo-5-(2-imidazolin-2-ylamino)Benzimidazole]	0.00302	1.00	0.00589
CCCn1cnc2ccc(NC3=NCCN3)c(Br)c21 [Example 16, 3-Propyl-4-bromo-5-(2-imidazolin-2-ylamino)Benzimidazole]	0.398	1.00	
CC(C)n1cnc2c(Br)c(NC3=NCCN3)ccc21 [Example 18, 1-Isopropyl-4-bromo-5-(2-imidazolin-2-ylamino)Benzimidazole]	0.0832	0.80	0.00447
CC(C)n1cnc2c(I)c(NC3=NCCN3)ccc21 [Example 19, 1-lsopropyl-4-Iodo-5-(2-imidazolin-2-ylamino)Benzimidazole]	0.49	0.70	0.00468
CC(C)n1cnc2ccc(NC3=NCCN3)c(Br)c21 [Example 21, 3-Isopropyl-4-bromo-5-(2-imidazolin-2-ylamino)Benzimidazole]	0.251	0.90	0.00646
CC(C)Cn1cnc2c(Br)c(NC3=NCCN3)ccc21 [Example 23, 1-Isobutyl-4-bromo-5-(2-imidazolin-2-ylamino)Benzimidazole]	0.692	0.90	0.0126
CC(C)Cn1cnc2ccc(NC3=NCCN3)c(Br)c21 [Example 24, 3-Isobutyl-4-bromo-5-(2-imidazolin-2-ylamino)Benzimidazole]	0.0457	1.00	0.00331
COc1ccc(Cn2cnc3c(Br)c(NC4=NCCN4)ccc32)cc1 [Example 36, 1-(4-Methoxybenzyl)-4-bromo-5-(2-imidazolin-2-ylamino)Benzimidazole]	0.0055	0.60	0.00955
COc1cccc(Cn2cnc3c(Br)c(NC4=NCCN4)ccc32)c1 [Example 37, 1-(3-Methoxybenzyl)-4-bromo-5-(2-imidazolin-2-ylamino)Benzimidazole]	0.0204	0.60	0.00661
OCCn1cnc2c(Br)c(NC3=NCCN3)ccc21 [Example 38, 1-(2-Hydroxyethyl)-4-bromo-5-(2-imidazolin-2-ylamino)Benzimidazole]	0.0355	1.00	0.0389
OCCn1cnc2ccc(NC3=NCCN3)c(Br)c21 [Example 39, 3-(2-Hydroxyethyl)-4-bromo-5-(2-imidazolin-2-ylamino)Benzimidazole]	0.0245	0.90	0.0437

Structure (SMILES)	EC50 [1] [µM]	I.A Alpha-2 A [2]	Ki [3] [µM]
NCCn1cnc2c(Br)c(NC3=NCCN3)ccc21 [Example 40, 1-(2-Aminoethyl)-4-bromo-5-(2-imidazolin-2-ylamino)Benzimidazole]	0.724	0.80	0.398
Cc1nc2ccc(NC3=NCCN3)c(Br)c2[nH]1 [Example 42, 2-Methyl-4-bromo-5-(2-imidazolin-2-ylamino)Benzimidazole]	0.0234	1.00	0.0102
CCc1nc2ccc(NC3=NCCN3)c(Br)c2[nH]1 [Example 43, 2-Ethyl-4-bromo-5-(2-imidazolin-2-ylamino)Benzimidazole]	0.0229	1.00	0.00724
CC(C)c1nc2ccc(NC3=NCCN3)c(Br)c2[nH]1 [Example 44, 2-Isopropyl-4-bromo-5-(2-imidazolin-2-ylamino)Benzimidazole]	0.00398	1.00	0.00295
CC(C)(C)c1nc2ccc(NC3=NCCN3)c(Br)c2[nH]1 [Example 45, 2-tert-Butyl-4-bromo-5-(2-imidazolin-2-ylamino)Benzimidazole]	0.0525	1.00	0.00851
FC(F)(F)c1nc2ccc(NC3=NCCN3)c(Br)c2[nH]1 [Example 46, 2-Trifluoromethyl-4-bromo-5-(2-imidazolin-2-ylamino)Benzimidazole]	0.0389	1.00	0.0457
Cc1cc2nc[nH]c2cc1NC1=NCCN1 [Example 49, 6-Methyl-5-(2-imidazolin-2-ylamino)Benzimidazole]	0.0912	0.80	0.0195
Brc1cc2nc[nH]c2c(Br)c1NC1=NCCN1 [Example 50, 4,6-Dibromo-5-(2-imidazolin-2-ylamino)Benzimidazole]	0.0158	1.00	0.00692
Brc1cc(NC2=NCCN2)cc2[nH]cnc12 [Example 51, 7-Bromo-5-(2-imidazolin-2-ylamino)Benzimidazole]	0.0977	0.90	0.0263
Cc1cc(NC2=NCCN2)cc2[nH]cnc12 [Example 52, 7-Methyl-5-(2-imidazolin-2-ylamino)Benzimidazole]	0.0813	0.90	0.0245
Clc1cc(NC2=NCCN2)cc2[nH]cnc12 [Example 53, 7-Chloro-5-(2-imidazolin-2-ylamino)Benzimidazole]	0.0575	1.00	0.0148
Ic1cc(NC2=NCCN2)cc2[nH]cnc12 [Example 54, 7-Iodo-5-(2-imidazolin-2-ylamino)Benzimidazole]	1.26	0.70	0.049
CCc1cc(NC2=NCCN2)cc2[nH]cnc12 [Example 55, 7-Ethyl-5-(2-imidazolin-2-ylamino)Benzimidazole]	0.0513	0.60	0.0437
CCCCc1cc(NC2=NCCN2)cc2[nH]cnc12 [Example 56, 7-Butyl-5-(2-imidazolin-2-ylamino)Benzimidazole]	0.501	0.70	0.0219
Brc1cc(NC2=NCCN2)c(Br)c2[nH]cnc12 [Example 58, 4,7-Dibromo-5-(2-imidazolin-2-ylamino)Benzimidazole]	0.00245	1.00	0.00129
Cc1cc(NC2=NCCN2)c(Br)c2[nH]cnc12 [Example 59, 4-Bromo-7-methyl-5-(2-imidazolin-2-ylamino)Benzimidazole]	0.000832	1.00	0.000977
Clc1cc(NC2=NCCN2)c(Br)c2[nH]cnc12 [Example 60, 4-Bromo-7-chloro-5-(2-imidazolin-2-ylamino)Benzimidazole]	0.000589	1	0.000891
